We go through one molecule from patent US20190290692A1 (MINERVA BIOTECHNOLOGIES, published 2019).

Holding throughout (assay): ELISA, peptide immobilised on surface (FIG. 20)
Test [1] addresses T1, PSMGFR minus 10 amino acids from the N-terminus.
T1 construct: also called N-10; N-10 PSMGFR
T1 peptide: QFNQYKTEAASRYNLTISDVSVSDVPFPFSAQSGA
From the text: (§1) The hu MN-E6 scFv-Fc bound to the PSMGFR peptide and to the PSMGFR N-10 peptide but not to the PSMGFR C-10 peptide. The parent MN-E6 antibody and the humanized MN-E6 require the C-terminal 10 amino acids of PSMGFR for binding.

The target of test [2] is T2, PSMGFR minus 10 amino acids from the C-terminus.
T2 construct: also called C-10; C-10 PSMGFR
T2 peptide: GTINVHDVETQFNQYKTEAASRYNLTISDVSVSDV
Description: as §1

In test [3] the target is T3, PSMGFR peptide (Primary Sequence of the MUC1 Growth Factor Receptor).
T3 construct: Immobilised on ELISA plates or attached to 1 um or 4.5 um beads; also called MUC1* peptide; MUC1* PSMGFR peptide
T3 peptide: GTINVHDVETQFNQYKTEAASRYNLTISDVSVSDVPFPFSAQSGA
Description: as §1

B1: humanized MN-E6 scFv-Fc (wild type Fc) (Fc fusion)
chain: DAAQPAEVQLVESGGGLVKPGGSLRLSCAASGFTFSRYGMSWVRQAPGKRLEWVSTISGGGTYIYYPDSVKGRFTISRDNAKNTLYLQMNSLRAEDTAVYYCTRDNYGRNYDYGMDYWGQGTLVTVSSGGGGSGGGGSGGGGSEIVLTQSPATLSLSPGERATLTCSATSSVSYIHWYQQRPGQSPRLLIYSTSNLASGIPARFSGSGSGSDYTLTISSLEPEDFAVYYCQQRSSSPFTFGSGTKVEIK[human IgG1 Fc left out]
notes: Biotinylated for some tissue stainings; also called hu MN-E6 scFv-Fc; hu MN-E6 scFv-Fc-wt
On to B1, for which the binding result in test [1] is on record as “binds”; in test [2], “no binding”; in test [3] it was “binds”.
